# From PubChem BioAssay AID1508642 (National Center for Advancing Translational Sciences (NCATS), 2021)
# Hit rate of the full screen: of about 43,000 compounds, about 200 (0.47%) were called active. Inconclusive results (about 12%) are left out. The call rests on the fitted dose curve; in most records, active means well fitted cell-killing curve with a large enough effect; inconclusive means small, poorly fitted or top-dose-only effect, or effect the other way; inactive means flat fitted curve, though single readings scatter. Some of the results follow.
# Assay: Cell viability qHTS assay in S16 Pmp22-F2sN cells; further: nearly all actives have a fitted effect of over 65% in size
# Conditions: S16 Pmp22-F2sN Schwann cells viability, CellTiter-Glo, 24 h; series mostly up to 57.5 µM; activity change, negative = cytotoxicity: at the top concentration
# Procedure, shortened: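 S16 Pmp22-F2sN Schwann cells (500-1,000/well) in phenol-red-free DMEM with 10% FBS received 23 nL compound by pin tool for 24 h at 37 °C. Viability was then read as CellTiter-Glo luminescence after 15 min at room temperature.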
# On the % scale 0 is the no-effect control and ±100 the full control effect.
row,SMILES,"activity change, negative = cytotoxicity"
1,O=C(COc1ccc(F)cc1)NCc1ccc2c(c1)CCN2C(=O)c1ccccc1,inactive: 2.62%
2,Cc1cccc(NC(=O)c2sc3nc(-c4cc5ccc(O)cc5oc4=O)[nH]c(=O)c3c2C)c1,inactive: -7.93%
3,O=C(Cn1c(=O)nc(-c2ccccc2F)c2cc(Cl)ccc21)NCCCc1ccccc1,inactive: -14.5%
4,COc1ccccc1CNC(=O)CCNS(=O)(=O)c1ccc2c(c1)oc(=O)n2C,inactive: -3.35%
5,COCCCN1C(=O)c2oc3ccccc3c(=O)c2C12C(=O)N(C)c1ccccc12 (configuration not stated),inactive: -15.9%
6,COc1ccc(CC(=O)N2CCc3cc(OC)c(OC)cc3C2COc2ccc3c(C)cc(=O)oc3c2)cc1OC (configuration not stated),inactive: 1.48%
7,O=C(COc1ccccc1F)Nc1ccc(OCc2cc(=O)n3ccccc3n2)cc1,inactive: -11.4%
8,COC(=O)c1ccc(Cn2c(SCc3ccc(F)cc3)nc3ccncc32)cc1,inactive: 1.87%
9,O=c1ccc2cc(S(=O)(=O)Nc3ccc(OC(F)(F)F)cc3)ccc2[nH]1,inactive: -2.81%
10,Cc1ccc(CNC(=O)CSC2=Nc3ccccc3N=C(c3ccc(F)cc3)C2)cc1,inactive: 22.9%
11,CCOc1ccc(NC(=O)CCc2c(C)nc3c(-c4ccccc4)c(C)nn3c2C)cc1,inactive: 9.44%
12,Cc1ccccc1C(=O)N1CCC(C(=O)Nc2ccc(F)cc2F)CC1,inactive: -0.2%
13,COc1ccc(CNC(=O)c2ccc(NC(=O)N3CCSc4ncccc43)cc2)cc1,inactive: 0.702%
14,CCCNC(=O)CN1CCN(c2ccc(NC(=O)c3ccc(OC)cc3)cc2C(=O)O)CC1,inactive: 6.34%
15,CCOC(=O)c1cccc(NC(=O)NC(C)c2c(-n3cccc3)sc3c2CCN(C)C3)c1 (configuration not stated),inactive: 3.65%
16,Cc1ccc(S(=O)(=O)c2nc(-c3ccccc3F)oc2NCc2ccccc2)cc1,inactive: 3.44%
17,Cc1nc(N2CCOCC2)c2c(C(=O)N3CCN(c4ccccc4)CC3)c(C)oc2n1,inactive: 4.85%
18,COc1ccccc1NC(=O)C1=C(C)Nc2nc(-c3ccco3)nn2C1c1ccccc1F (configuration not stated),inactive: -3.03%
19,Cn1nnnc1SCCNCc1ccc(Cl)c(Cl)c1,inactive: 6.98%
20,CCCc1cc(=O)[nH]c(Nc2ccc(OCC)cc2)n1,inactive: 4.29%
21,CCOc1ccc(C(=O)Nc2ccc(-n3nncc3-c3ccc(OC)cc3)cc2)cc1,inactive: -13.6%
22,COc1cccc(CCNC(=O)c2cnc3sc(N4CCOCC4)nn3c2=O)c1,inactive: 1.54%
23,Cc1cccc(S(=O)(=O)c2cn(C)c3cc(N4CCN(c5ccccc5)CC4)c(F)cc3c2=O)c1,inactive: -5.62%
24,Cc1ccc(Cn2c(C)c3cnn(CC(=O)NCCc4ccc(Cl)cc4)c(=O)c3c2C)cc1,inactive: 4.39%
25,COc1cc(NC(=O)N2CCC(CN3CCCCCC3)CC2)cc(OC)c1OC,inactive: 5.71%

row,SMILES,"activity change, negative = cytotoxicity"
1,CCc1ccc(NC(=O)Cn2cc(S(=O)(=O)c3ccc(F)cc3)c(=O)c3cc(OC)ccc32)cc1,inactive: -8.06%
2,CC(=O)c1ccc(NC(=O)CCc2c(C)nn(-c3ccc4nnc(C)n4n3)c2C)cc1,inactive: 9.48%
3,COc1ccc(NC(=O)C2CCC(CNS(=O)(=O)c3ccc(Br)s3)CC2)c(OC)c1 (configuration not stated),inactive: -2.34%
4,CC(C)CC(C(=O)NCC1CCN(Cc2ccc(F)cc2)CC1)N1Cc2ccccc2C1=O (configuration not stated),inactive: -9.42%
5,COC(=O)C1=C(C)N(C(C)C)C(=O)C1(NC(=O)c1ccc(C(C)(C)C)cc1)C(F)(F)F (configuration not stated),inactive: -1.01%
6,Cc1ccccc1Cn1c(=O)n(CCC(=O)NCc2ccco2)c(=O)c2sccc21,inactive: -3.3%
7,CC(C)Nc1nc2c(-c3cccc(Br)c3)nnn2c2ccccc12,inactive: 6.72%
8,CCn1cc(C(=O)N2CCN(c3cc(Cl)ccc3C)CC2)c(=O)c2cc(S(=O)(=O)N3CCCCC3)ccc21,inactive: -10.9%
9,O=C(CSc1nc(-c2ccccc2)nc2cc(=O)[nH]n12)Nc1ccccc1,inactive: 27.4%
10,CCc1nc(-c2ccc(C)c(S(=O)(=O)N3CCN(c4ccc(C(C)=O)cc4)CC3)c2)no1,inactive: -17.8%
11,Cc1ccccc1C(=O)N1c2ncnn2C2(CCCCC2)[C@@H]2CCCC[C@@H]21,inactive: -17.9%
12,Cc1cccc(C)c1NC(=O)c1sc(-n2nc(C)c(Cc3ccc4c(c3)OCO4)c2C)nc1C,inactive: 1.18%
13,Clc1ccc(NCc2nc3ccccc3n2CCOc2ccccc2)cc1,inactive: -2.34%
14,COc1ccc(Cl)cc1NC(=O)Cn1c(=O)c2ccccc2n2nncc12,inactive: 9.93%
15,CCC(C(=O)Nc1ccc(C)c(Cl)c1)n1c(=O)c(-c2ccccc2NC(C)=O)nc2ccccc21 (configuration not stated),inactive: -2.35%
16,Cc1nc(-n2nc(C)c(CCC(C)C)c2C)sc1C(=O)Nc1cccc(Cl)c1,inactive: -8.33%
17,CCN(C(=O)CSc1nc2ccccc2nc1Cc1ccc(F)cc1)c1cccc(C)c1,inactive: -15.1%
18,COc1cc(CNCCSc2nnnn2C)ccc1OCc1ccc(Cl)cc1Cl,inactive: -21.6%
19,Cc1ccc(NC(=O)Cn2nc3c(cc2=O)CCCC3)cc1Cl,inactive: 8.36%
20,COc1ccc(C(=O)Nc2nc3ccccc3n2CCOc2ccc(Cl)cc2)cc1,inactive: -15.7%
21,CCOc1ccc(N(CC)C(=O)CCc2nc(-c3ccccc3F)no2)cc1,inactive: -2.92%
22,CNC(=O)c1cnc2sc(N3CCCCCC3)nn2c1=O,inactive: 7.12%
23,CCCOc1ccc(Oc2nc(NCC(C)C)nc(N(C)C)n2)nn1,inactive: -12.3%
24,CCc1ccc(NC(=O)C(Cc2ccccc2)NS(=O)(=O)c2ccc3c(c2)c(=O)n(C)c(=O)n3C)cc1 (configuration not stated),inactive: 17.7%
25,CCC(Sc1nnc(-c2ccc(OC)c(OC)c2)c(-c2ccc(OC)c(OC)c2)n1)C(=O)NC1CCCC1 (configuration not stated),inactive: 4.37%

row,SMILES,"activity change, negative = cytotoxicity"
1,COc1cccc(NC(=O)Cn2nc(C)c3c(C)n(-c4ccccc4)nc3c2=O)c1,inactive: -10.2%
2,Cc1cccn2c(=O)cc(CSc3nnc(NC(=O)c4ccc(F)cc4)s3)nc12,inactive: 0.635%
3,O=C(NCCc1ccccc1)c1ccc(Cn2c(SCc3ccccc3)nc3cccnc32)cc1,inactive: -0.771%
4,COc1ccc(-c2nc(CNS(=O)(=O)c3cccc(F)c3)cs2)cc1,inactive: 8.44%
5,CCOc1ccccc1NC(=O)C1=C(C)Nc2ncnn2C1c1ccc(C)o1 (configuration not stated),inactive: -0.997%
6,O=[N+]([O-])c1cc(-c2nc(-c3ccccc3)no2)ccc1N1CCOCC1,inactive: -0.238%
7,COc1ccc(-c2nc(CCNC(=O)c3ccc(Br)o3)cs2)cc1,inactive: -4.07%
8,CCc1ccccc1NC(=O)Cn1c(SCc2ccc(F)cc2)nc2ccncc21,inactive: -9.49%
9,Cc1cccc(NC(=O)c2oc3ccccc3c2NC(=O)Cc2coc3ccc(C(C)C)cc23)c1,inactive: -1.56%
10,CCc1cccc(CC)c1NC(=O)CCS(=O)(=O)c1ccc2c(c1)CCN2C(C)=O,inactive: 11.4%
11,CC1CCN(C(=O)C2COc3ccccc3C2)CC1 (configuration not stated),inactive: 0.791%
12,O=C(CCCn1c(=O)c2cccn2c2ccccc21)NCc1ccccc1Br,inactive: -10.5%
13,COc1ccc(CNC(=O)CSc2c3c(nc4ccc(Cl)cc24)CCCC3)cc1,inactive: 16.8%
14,CCc1nn(CC(=O)Nc2ccc(NC(C)=O)cc2)c(=O)c2cc3sccc3n12,inactive: -14.2%
15,COc1ccc(S(=O)(=O)NCc2nc3nc(C)cc(C)n3n2)cc1OC,inactive: -1.55%
16,COc1ccc(Nc2c3c(nc4nncn24)CCC3)cc1OC,inactive: 10.6%
17,COCCNC(=O)CN1C(=O)c2cccnc2Oc2ccc(Cl)cc21,inactive: 14.7%
18,Cc1ccc(S(=O)(=O)N(CCc2ccccc2)CC(=O)Nc2ccc(Br)cc2)cc1,inactive: 1.41%
19,CCOC(=O)c1ccc(N2C(=O)c3n[nH]c(-c4ccco4)c3C2c2cccc(O)c2)cc1 (configuration not stated),inactive: 5.71%
20,O=C(Cn1cnc2onc(-c3ccc(Cl)cc3)c2c1=O)Nc1ccc(F)cc1,inactive: -16.8%
21,COCC(C)Nc1ncnc2c1cnn2-c1ccc(C)c(C)c1 (configuration not stated),inactive: 5.73%
22,CCCOc1ccc(C2CC(=O)Nc3c2c(=O)n(C)c(=O)n3C)cc1OC (configuration not stated),inactive: 16.3%
23,CCOc1ccc(N2CC(NC(=O)C3CC3)CC2=O)cc1 (configuration not stated),inactive: -6.27%
24,COc1ccc(-n2nc(C(=O)NCc3ccc(F)cc3Cl)c3c4ccccc4n(C)c3c2=O)cc1Cl,inactive: 9.32%
25,Clc1ccc(Nc2c(-c3ccccc3Cl)nc3ccc(Cl)cn23)cc1,inactive: 21.1%

row,SMILES,"activity change, negative = cytotoxicity"
1,COc1ccc(C)cc1NC(=O)c1cc(S(=O)(=O)N2CCN(c3cccc(C)c3C)CC2)ccc1F,inactive: -9.95%
2,CCCn1c2ccc(F)cc2c2nnc(SCCN(CC)CC)nc21,inactive: -23.1%
3,Cc1ccc(C(=O)Nc2cccc(C(=O)OCc3cc(=O)n4nc(C5CC5)sc4n3)c2)cc1,inactive: 4.14%
4,Cn1c(=O)c(=O)n(C)c2cc(S(=O)(=O)N3CCN(c4ccccc4)CC3)ccc21,inactive: 28.2%
5,Cc1cccc(C(=O)Oc2c(Sc3ccccc3)c(C)nn2C(C)(C)C)c1,inactive: -3.01%
6,CC(NC(=O)c1ccc2c(c1)sc1nc(-c3ccccc3)cn12)C12CC3CC(CC(C3)C1)C2 (configuration not stated),inactive: 7.07%
7,CCCCN(CC)CCCNC(=O)Cn1ncc2c3ccccc3n(Cc3ccc(F)cc3)c2c1=O,inactive: 5.78%
8,Cc1ccc(CN2CCCn3nc(C(=O)NCCc4cccc(C)c4)cc3C2=O)cc1,inactive: -10.7%
9,CCOC(=O)c1c(S(=O)(=O)N2CCCC(C(=O)NCc3ccccc3OC)C2)c(C)n(C)c1C (configuration not stated),inactive: -2.8%
10,CCc1nc(SC)ncc1C(=O)N1CCN(c2cc(C)ccc2C)CC1,inactive: 5.1%
11,Cc1ccc(NC(=O)c2ccc(=O)n(Cc3ccccc3C)c2)c(C)c1,inactive: -1.28%
12,COc1cccc(CNC(=O)C2CCCN(c3nc4ccccc4n4cccc34)C2)c1 (configuration not stated),inactive: 12.3%
13,Cc1nn(C)c2c1c(-c1ccccc1)cc(=O)n2CC(=O)NC(C)C,inactive: -3.66%
14,Cc1ccc(CN2CCCn3nc(C(=O)NCCc4ccccc4Cl)cc3C2=O)cc1,inactive: -1.99%
15,COc1ccc(CCNCc2ccc3c(c2)n(C)c(=O)n3C)cc1OC,inactive: -3.44%
16,Cc1ccc(CNC(=O)c2ccc3c(O)c(S(=O)(=O)c4ccc(Cl)cc4)c(=O)[nH]c3c2)cc1,inactive: 2.28%
17,Cc1ccc(-c2nc(N3CCCC(C)C3)c3ccccc3n2)cc1 (configuration not stated),inactive: 12.3%
18,CCc1ccccc1NC(=O)CSc1nc2c(oc3ccccc32)c(=O)n1C,inactive: -3.75%
19,NC(=O)C1CCN(S(=O)(=O)c2ccc(N3CCCCS3(=O)=O)cc2)CC1,inactive: -9.78%
20,COc1ccc(-c2nn(-c3ccccc3)cc2C2NC(=O)NC(C)=C2C(=O)OC(C)C)cc1OC (configuration not stated),inactive: 13.1%
21,Cc1ccc(-c2noc(-c3nnn(-c4cccc(C(F)(F)F)c4)c3N)n2)cc1,inactive: 0.587%
22,COc1ccc2c(c1)c1c(c(=O)n(-c3cccc(C)c3)c(=O)n1Cc1cccc(Cl)c1)n2C,inactive: 14.1%
